Among all 350,000 compounds or so, about 31,000 (8.9%) were called active. The inconclusive results got no clear call from the source; some entries with a clear call stand among them for comparison. Calls follow the shape of the dose curve; as a rule, active = well fitted inhibition curve with a large enough effect; inconclusive = small, poorly fitted or top-dose-only effect; inactive = no such curve, though single readings can be large or run the other way. Potencies beside an inconclusive call are fits to weak or partial responses and may not hold up.
These compounds were tested against Histone-lysine N-methyltransferase EHMT2 (Homo sapiens) (UniProt Q96KQ7) (assay: qHTS Assay for Inhibitors of Histone Lysine Methyltransferase G9a). Details: G9a H3K9 monomethylation, AlphaScreen, 2 h; activity, negative = inhibition: at 59 µM (top of the series) unless noted.
Chain of UniProt Q96KQ7 (Q96KQ7 whole entry, looked up): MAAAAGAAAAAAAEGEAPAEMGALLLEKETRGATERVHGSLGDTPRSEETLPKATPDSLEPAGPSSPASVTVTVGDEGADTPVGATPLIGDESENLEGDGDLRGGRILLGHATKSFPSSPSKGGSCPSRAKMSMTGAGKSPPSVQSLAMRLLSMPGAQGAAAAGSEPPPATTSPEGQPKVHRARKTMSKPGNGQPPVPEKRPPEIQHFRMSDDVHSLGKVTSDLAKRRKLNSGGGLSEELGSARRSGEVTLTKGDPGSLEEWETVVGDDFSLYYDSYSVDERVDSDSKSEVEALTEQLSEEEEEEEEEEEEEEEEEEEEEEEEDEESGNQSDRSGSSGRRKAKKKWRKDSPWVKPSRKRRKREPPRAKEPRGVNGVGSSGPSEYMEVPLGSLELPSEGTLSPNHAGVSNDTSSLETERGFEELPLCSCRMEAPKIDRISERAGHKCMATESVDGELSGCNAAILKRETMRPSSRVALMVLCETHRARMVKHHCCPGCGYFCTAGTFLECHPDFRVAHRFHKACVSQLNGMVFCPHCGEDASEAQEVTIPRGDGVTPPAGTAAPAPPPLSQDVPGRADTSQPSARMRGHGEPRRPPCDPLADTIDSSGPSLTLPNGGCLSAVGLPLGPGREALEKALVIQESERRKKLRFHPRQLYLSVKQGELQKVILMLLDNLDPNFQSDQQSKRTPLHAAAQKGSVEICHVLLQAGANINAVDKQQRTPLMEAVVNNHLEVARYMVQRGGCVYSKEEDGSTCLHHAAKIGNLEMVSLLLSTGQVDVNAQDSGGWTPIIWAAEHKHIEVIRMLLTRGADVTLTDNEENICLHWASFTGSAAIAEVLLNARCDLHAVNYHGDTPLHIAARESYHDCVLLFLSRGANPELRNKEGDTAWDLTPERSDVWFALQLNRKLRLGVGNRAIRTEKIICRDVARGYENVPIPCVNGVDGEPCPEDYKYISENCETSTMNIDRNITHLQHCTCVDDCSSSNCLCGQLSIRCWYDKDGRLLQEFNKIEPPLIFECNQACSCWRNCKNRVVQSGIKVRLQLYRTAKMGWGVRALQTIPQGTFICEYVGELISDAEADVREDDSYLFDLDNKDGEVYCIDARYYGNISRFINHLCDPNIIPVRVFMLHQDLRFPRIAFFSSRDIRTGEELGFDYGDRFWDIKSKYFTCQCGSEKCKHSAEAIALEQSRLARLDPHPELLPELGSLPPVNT
In short: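 Chemiluminescent proximity detection of H3K9 monomethylation, read after 10 min bead incubation in the dark. Reaction: 20 nM G9a, 500 nM biotin-H3K9 peptide, 20 uM SAM cofactor, 2 h, room temperature, following 15 min enzyme-compound preincubation.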
% is scaled to controls: 0 for no effect and ±100 for the full control effect; potency is read from the fitted curve at half-maximal effect; tags tell the direction and shape of the fitted curve.
Also: nearly all actives have a fitted effect of over 75% in size.

| SMILES | Potency | activity, negative = inhibition |
| --- | --- | --- |
| N#Cc1ccc(NC(=O)CN2CCN(C(=O)c3cccs3)CC2)cc1Cl | active: 39.8 µM | – |
| C[N+](C)(C)Cc1ccccc1 | – | inconclusive: -58.1% [inhibitor] |
| CC1(C)Cc2c(C#N)c(N3CCNCC3)nc(-c3ccco3)c2CS1 | inconclusive: 70.8 µM [inhibitor, partial curve, poor fit] | – |
| NC(=O)Cn1cc(C(=O)c2ccccc2F)c2ccccc21 | – | inactive: 24.1% [at 102 µM] |
| C=CCn1c(O)c(C(CC)=Nc2cccc(C(F)(F)F)c2)c(=O)[nH]c1=O | inconclusive: 89.1 µM [inhibitor, single point] | – |
| CCN1CCN(Cc2ccc(C)cc2C)CC1 | active: 56.2 µM | – |
| CNC(=O)COC(=O)c1ccc(-c2nc3ccccc3s2)s1 | inconclusive: 14.1 µM [inhibitor, partial curve, poor fit] | – |
| CN1Cc2c(c(C#N)c(N)n(C)c2=S)CC1(C)C | inconclusive: 79.4 µM [inhibitor, single point] | – |
| O=C1NC(=O)N(c2ccccc2)C(=O)/C1=C\c1ccc([N+](=O)[O-])o1 | active: 12.6 µM | – |
| O=c1[nH]c(O)c(N=Nc2ccc(S(=O)(=O)N3CCOCC3)cc2)c(=O)[nH]1 | active: 12.6 µM | – |
| CC(C)[N+](C)(C)CC#CC(O)(c1ccccc1)c1ccccc1 | inconclusive: 0.708 µM [inhibitor, full curve, poor fit] | – |
| C[N+]1(CCOS(=O)C23CC4CC(CC(C4)C2)C3)CCOCC1 (configuration not stated) | inconclusive: 8.91 µM [inhibitor, partial curve, poor fit] | – |
| COc1cc(NS(=O)(=O)c2ccc(NC(=S)NC(=O)CC(C)C)cc2)nc(OC)n1 | inconclusive: 39.8 µM [inhibitor, single point] | – |
| O=C(NC(=S)N1C[C@H]2C[C@H](C1)c1cccc(=O)n1C2)c1ccc(Cl)cc1 | inconclusive: 79.4 µM [inhibitor, partial curve, poor fit] | – |
| COc1ccc(/C=C2/C(=O)N(Cc3ccco3)C(=O)N(C(C)C)C2=O)cc1 | inconclusive: 25.1 µM [inhibitor, single point] | – |
| CCOC(=O)c1c(/N=C/C2C(=O)NC(=S)NC2=O)sc2c1CCC2 | inconclusive: 50.1 µM [inhibitor, partial curve, poor fit] | – |
| O=C1NC(=O)C(=Cc2ccccc2OCCOc2ccc([N+](=O)[O-])cc2)C(=O)N1 | active: 15.8 µM | – |
| Cc1ccccc1-c1nc(CN2C(=O)CN=C(c3ccccc3)c3ccccc32)c(C)o1 | inconclusive: 28.2 µM [inhibitor, single point] | – |
| COc1ccccc1-c1nn2c(=O)cc(CN3CCN(C(=O)COc4ccccc4Cl)CC3)nc2s1 | – | inactive: 8.58% |
| O=[N+]([O-])c1ccc([As](=O)(O)O)cc1 | inconclusive: 5.01 µM [inhibitor, single point] | – |
| OC(C#CCN1CCOCC1)(c1ccccc1)C1CCCC1 (configuration not stated) | inconclusive: 31.6 µM [inhibitor, single point] | – |
| CC(=O)OC[C@H](N)C(=O)c1ccccc1 | inconclusive: 25.1 µM [inhibitor, single point] | – |
| CCOP(=O)(CN(CC)CCNP(=O)(OCC)OCC)OCC | active: 50.1 µM | – |
| CC(C)(C)c1ccc(S(=O)(=O)Nc2ccc(O)c(Sc3nc4ccccc4s3)c2)cc1 | inconclusive: 2 µM [inhibitor, partial curve, poor fit] | – |

| SMILES | Potency | activity, negative = inhibition |
| --- | --- | --- |
| COc1ccc2c(c1OC)C(=O)OC2c1c(O)n(C2CCCCC2)c(=O)[nH]c1=O (configuration not stated) | inconclusive: 50.1 µM [inhibitor, partial curve, poor fit] | – |
| CCOc1ccc(Cc2c(O)[nH]c(=O)[nH]c2=O)cc1 | inconclusive: 35.5 µM [inhibitor, single point] | – |
| C(#CCN1CCOCC1)COCC#Cc1ccccc1 | inconclusive: 14.1 µM [inhibitor, partial curve, poor fit] | – |
| CCc1c(C)nc(N)nc1N1N=C1SC | inconclusive: 89.1 µM [inhibitor, partial curve, poor fit] | – |
| CCCCC1C(=O)NC(=S)NC1=O | active: 4.47 µM | – |
| CCOC(=O)C1(CCOc2ccccc2)CCN(C2Cc3ccccc3C2)CC1 | inconclusive: 39.8 µM [inhibitor, partial curve, poor fit] | – |
| Cn1c(CN2CCN(C(=O)COc3ccccc3)CC2)nc2cc([N+](=O)[O-])ccc21 | – | inactive: 12.5% |
| CCCC(=O)c1cc(CP(=O)(OCC)OCC)oc1C | active: 7.94 µM | – |
| Cc1ncc(C[n+]2csc(CCOP(=O)(O)O)c2C)c(N)n1 | inconclusive: 3.98 µM [inhibitor, partial curve, poor fit] | – |
| COc1cc(Br)c(CNCCc2ccc3c(c2)OCO3)cc1OC | active: 8.91 µM | – |
| Oc1cc2c(cc1CN1CCN(c3ccccc3F)CC1)OCO2 | active: 8.91 µM | – |
| O=C1C(=O)c2ccccc2-c2ccccc21 | inconclusive: 5.01 µM [inhibitor, full curve, poor fit] | – |
| CCOCCCn1c(N)c(C(=O)Nc2sc3c(c2C(=O)OC)CCCC3)c2nc3ccccc3nc21 | active: 5.62 µM | – |
| C=C1C(=O)O[C@@H]2C[C@@H](C)[C@@H]3C=CC(=O)[C@@]3(C)[C@@H](OC(=O)CC(=O)O[C@H]3[C@@H]4C(=C)C(=O)O[C@@H]4C[C@@H](C)[C@@H]4C=CC(=O)[C@]43C)[C@H]12 | inconclusive: 7.08 µM [inhibitor, single point] | – |
| Fc1ccccc1-c1n[nH]c(=S)n1Cc1ccccc1 | active: 3.55 µM | – |
| CCCN1C[C@H](C)N([C@H](c2ccc(C(=O)N(CC)CC)cc2)c2cccc(OC)c2)C[C@H]1C | – | inactive: 7.13% |
| Cc1oc(-c2ccc(Cl)cc2)nc1CS(=O)CC(=O)N1CCC2(CC1)OCCO2 (configuration not stated) | – | inactive: 33.1% |
| COc1cc2c(cc1OC)-c1c(OC)c(OC)cc3c1[C@H](C2)N(C)CC3 | inconclusive: 89.1 µM [inhibitor, single point] | – |
| COC(=O)c1cncn1C(C)c1ccccc1 (configuration not stated) | – | inconclusive: -58.1% [inhibitor] |
| O=C(COc1ccc(Cl)cc1)N1CCN(Cc2ccc([N+](=O)[O-])cc2)CC1 | active: 2.51 µM | – |
| C=CCn1cc(C=C2C(=O)N(C)C(=O)N(C)C2=O)c2ccccc21 | – | inactive: -3.22% [at 102 µM] |
| O=C(NCc1cn2ccccc2n1)c1ccccc1 | inconclusive: 79.4 µM [inhibitor, single point] | – |
| Cc1cc(C(=O)O)oc(=O)c1 | inconclusive: 50.1 µM [inhibitor, partial curve, poor fit] | – |
| COc1ccc(C2SCC(=O)Nc3c2c(=O)[nH]n3C2CCCCCC2)cc1 (configuration not stated) | active: 70.8 µM | – |

| SMILES | Potency | activity, negative = inhibition |
| --- | --- | --- |
| N#CC1=C(N)Oc2n[nH]c(-c3ccccc3)c2C1c1ccncc1 (configuration not stated) | inconclusive: 56.2 µM [inhibitor, partial curve, poor fit] | – |
| COC(=O)C(c1ccccc1)C1CCCCN1 (configuration not stated) | – | inactive: 14.9% |
| Cc1ccccc1-c1nn2c(=O)cc(CN3CCN(C(=O)COc4ccccc4Cl)CC3)nc2s1 | – | inactive: 5.14% |
| COc1ccc(NC2=NCCCS2)cc1OC | inconclusive: 89.1 µM [inhibitor, single point] | – |
| COc1ccc(OC)c(N2C(=O)NC(=O)C3(Cc4cc(C)ccc4N(C)C3)C2=O)c1 (configuration not stated) | active: 8.91 µM | – |
| Cc1ccc(N2C(=O)NC(=O)/C(=C\c3cnc(-c4ccccc4)nc3)C2=O)cc1 | inconclusive: 7.94 µM [inhibitor, full curve, poor fit] | – |
| Cc1c(C=C2C(=O)NC(=O)NC2=O)c(=O)n(-c2ccccc2)n1C | inconclusive: 44.7 µM [inhibitor, partial curve] | – |
| O=c1[nH]c(=S)n(C2CC2)c(O)c1C=NCCN1CCOCC1 | – | inactive: 1.63% [at 102 µM] |
| CCOc1ccc(Nc2c(S(=O)(=O)c3ccc(C)cc3)cnc3ccc(F)cc23)cc1 | active: 10 µM | – |
| Cc1cc(Cc2c(O)[nH]c(=S)[nH]c2=O)ccc1OC(C)C | active: 8.91 µM | – |
| COc1cc2c(cc1OC)-c1c(OC)c(OC)cc3c1[C@H](C2)[N+](C)(C)CC3 | active: 14.1 µM | – |
| COc1ccc2[nH]c(C)c(CCNCc3cn(C)c4ccccc34)c2c1 | active: 7.08 µM | – |
| CCCN1CCc2cc(O)cc3c2[C@H]1Cc1ccc(O)c(O)c1-3 | active: 1.12 µM | – |
| CC1CN=C(NCc2ccccc2Cl)S1 (configuration not stated) | – | inactive: -0.354% [at 102 µM] |
| CN(CCc1nnc(N)s1)[N+](=O)[O-] | active: 22.4 µM | – |
| Cc1nc2nc(C)c(CCC(=O)N3CCC4(CC3)OCCO4)c(C)n2n1 | – | inactive: 2.74% |
| CN(C)c1cc(N)c2c(n1)CCC2 (tested in a mixture with another compound) | inconclusive: 44.7 µM [inhibitor, partial curve, poor fit] | – |
| CCC(=NCc1ccc2c(c1)OCO2)c1c(O)n(C)c(=O)n(C)c1=O | inconclusive: 89.1 µM [inhibitor, single point] | – |
| CC/C(=N\NC(=O)c1ccccc1Cl)c1c(O)n(C2CCCCC2)c(=O)[nH]c1=O | inconclusive: 50.1 µM [inhibitor, single point] | – |
| C=CCn1c(C2CC2)n[nH]c1=S | active: 44.7 µM | – |
| CCN1CCN(Cc2ccc(C)cc2)CC1 | inconclusive: 50.1 µM [inhibitor, partial curve] | – |
| Cc1cc(C)cc(NC(=O)CN2C(=O)CN=C(c3ccccc3)c3cc(Cl)ccc32)c1 | inconclusive: 35.5 µM [inhibitor, partial curve, poor fit] | – |
| CC1=NN(c2ccccc2)C(=O)/C1=C/c1c(O)[nH]c(=O)[nH]c1=O | active: 39.8 µM | – |
| CCOc1ccc(N2C(=O)NC(=O)/C(=C/c3cnc(SC)nc3)C2=O)cc1 | active: 8.91 µM | – |

— PubChem BioAssay AID504332 (National Center for Advancing Translational Sciences (NCATS), 2011)
